Experimental findings from PubChem BioAssay AID1240 (Sanford-Burnham Center for Chemical Genomics, 2008) are described below.

SMILES strings stand for the structures. Among all 50,000 compounds or so, about 800 (1.6%) showed an effect of 50% or more. The list shows a part of the results.

The target of this test is Bcl-2-like protein 10 (Homo sapiens) (UniProt Q9HD36). In words: Phenotype converters, Bcl-B/TR3 peptide binding displacement, primary biochemical FP (AID 1240).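 Also: 0% = Bcl-B with tracer peptide and DMSO and 100% = tracer peptide lacking Bcl-B.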 As to conditions: GST-Bcl-B / FITC-TR3 peptide fluorescence polarization; stronger effect = higher value; compound at 3.75 mg/L.
Chain of UniProt Q9HD36 (Q9HD36 whole entry, looked up): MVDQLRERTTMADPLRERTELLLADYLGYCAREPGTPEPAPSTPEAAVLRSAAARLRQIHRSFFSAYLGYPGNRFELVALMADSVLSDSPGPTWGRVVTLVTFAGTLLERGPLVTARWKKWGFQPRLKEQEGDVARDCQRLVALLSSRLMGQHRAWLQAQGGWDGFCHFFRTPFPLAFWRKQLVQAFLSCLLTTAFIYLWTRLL
On to `COc1cc(NC(=O)C(c2ccccc2)c2ccccc2)ccc1NC(=O)c1ccco1`, for which the displacement is -5.3%.
Consider `O=C(Nc1ccc(Nc2ccccc2)cc1)c1ccc(Br)cc1`, for which the displacement is -2.2%.
For the compound `COc1cc(/C=C/C(=O)c2c(-c3ccccc3)c3cc(Cl)ccc3[nH]c2=O)cc(Br)c1OC`, the displacement was found to be 2.8%.
The value for `Cc1cc(NC(=O)c2ccccc2)sc1C` was 13.5%.
As to `CCN(CC)CCN1C(=O)C(O)=C(C(=O)/C=C/c2ccccc2)C1c1ccc(Br)cc1` (stereo not given), the displacement is 11.4%.
For `CCOC(=O)c1c(NC(=O)COc2ccccc2)sc(C(=O)Nc2cc(C(F)(F)F)ccc2Cl)c1C`, the displacement worked out at 13.2%.
The value for `O=C(NCCNc1ccc(C(F)(F)F)cc1[N+](=O)[O-])c1cc(F)c(F)cc1Cl` was -0.7%; that for `CCCOc1cc2oc(=O)c3c(c2cc1Cl)CCCC3` was -7.1%; that for `COc1ccc(-c2noc(COc3ccc(Cl)cc3)n2)cc1` was 12.8%.
The value for `O=C(Nc1ccccc1)O/N=C\c1ccc(F)cc1` was 10.2%.
In the case of `Oc1ccc(/C=N/Nc2nnc(-c3ccccc3)c(-c3ccccc3)n2)cc1` it was 1.7%.
With `O=C1C(=O)N(Cc2ccc(Cl)c(Cl)c2)c2ccccc21`, the displacement was -1.1%.
The value for `Cc1ccc(S(=O)(=O)NC(=O)Nc2ccccc2F)cc1` was 14.4%.
In the case of `Cc1nc2ccccc2n1C(=O)c1ccc([N+](=O)[O-])cc1` it was 11%; in that of `Cc1ccc(C2OC3(C(=O)c4ccccc4C3=O)C(c3cccc(Cl)c3)C23C(=O)c2ccccc2C3=O)cc1` (stereo not given), 2%; in that of `C=CCOc1ccc(/C=C2\SC(=S)N(Cc3ccccc3)C2=O)cc1OC`, 11.8%.
In the case of `COc1ccccc1N1CCN(C(=O)c2sc3cc(C)ccc3c2Cl)CC1` it was -7.2%.
Turning to `COc1ccc(/C(N)=N/OC(=O)/C=C/c2ccccc2)cc1`, the displacement is -11.5%.
The value for `Cc1ccccc1/C=C(/C#N)C(=O)Nc1cccc(Br)c1` was -9.8%.
Regarding `FC(F)(F)c1nc2ccccc2nc1-c1ccccc1`, the displacement was -4.6%.
Take `COc1cc(/C=C2\SC(NC(C)=O)=NC2=O)cc2sc(=O)oc12`: the displacement was 24.7%.
The value for `COc1ccc(N2C(=O)C3C4c5ccccc5C(C)(c5ccccc54)C3C2=O)cc1` (stereo not given) was 3.8%; that for `CC1(C)CC(=O)c2c(oc3ccc(NS(=O)(=O)c4ccc(Br)cc4)cc23)C1` was 2.5%.
In the case of `COc1ccc(/C=C/C(=O)NCc2ccc(C)cc2)cc1OC`, the displacement stood at 9.4%.
Take `O=S(=O)(c1ccc2ccccc2c1)N(CC(O)CN1CCOCC1)c1ccccc1` (stereo not given): the displacement was -0.7%.
In the case of `COc1cccc(CNCc2ccccc2[N+](=O)[O-])c1OC` it was 8.5%; in that of `CCOC(=O)CCc1c(C)nc2cc(-c3ccc(Cl)cc3)[nH]n2c1=O`, -0.7%; in that of `O=C1S/C(=C\c2ccc(Br)c([N+](=O)[O-])c2)C(=O)N1c1ccccc1`, 7.6%.
In the case of `CC1=NN(C(=O)c2ccc([N+](=O)[O-])cc2)C(O)(C(F)(F)F)C1` (stereo not given) it was 6.8%.
In the case of `CC1CCCC(C)N1CC(O)COc1ccccc1C(C)(C)C` (stereo not given) it was 1%.
As for `COc1ccc(-n2cnc3cc(NC(C)=O)ccc32)cc1`, the displacement was -12%.
The value for `Cc1ccc(N2C(=O)/C(=C/C3CC=CCC3)SC2=S)cc1` (stereo not given) was 15.3%.
The value for `CCOC(=O)C1(Nc2ccc(C)cc2)Sc2cc(C)ccc2NC1=O` (stereo not given) was 9.1%; that for `O=C(Nc1nc(-c2ccc(Cl)c(Cl)c2)cs1)c1ccc(S(=O)(=O)N2CCOCC2)cc1` was -0.5%; that for `Cc1ccc(N2NC(=O)/C(=C/c3cc([N+](=O)[O-])ccc3Cl)C2=O)cc1C` was 27.9%.
In the case of `CCN(CC)C(=O)CN(c1ccc(OC)cc1)S(C)(=O)=O` it was 5.1%; in that of `O=C(O)c1cc(-c2ccc(/C=C3/Sc4ccccc4C3=O)o2)ccc1O`, -7.1%; in that of `Cc1cccc(-c2cc3nc(-c4ccc([N+](=O)[O-])cc4)cc(=O)n3[nH]2)c1`, 0.1%.
For the compound `COc1c(Cl)cc(C(=O)Nc2ccc(I)cc2Cl)cc1Cl`, the displacement turned out to be 14.6%.
For `O=CN1CCN(C(=O)c2ccc(F)cc2)CC1`, the displacement was -0.6%.
As for `OC(COCc1ccc(Cl)cc1)CSc1ccccn1` (stereo not given), the displacement is -10.9%.
The value for `COc1ccccc1C1CC(c2ccc(Br)cc2)=NN1C(=O)CCC(=O)O` (stereo not given) was -18.1%.
In the case of `O=C(/C=C/c1ccco1)Nc1cccc([N+](=O)[O-])c1` it was 5.3%; in that of `COc1ccc(CN2CCN(Cc3ccncc3)CC2)c(OC)c1OC`, 3.6%; in that of `CSc1ccccc1NC(=O)CSc1nc2ccccc2s1`, 0.1%.
In the case of `COc1ccccc1NC(=O)c1ccc2c(c1)C(=O)N(N1C(=O)c3ccccc3C1=O)C2=O` it was -0.6%; in that of `Cc1onc(-c2ccccc2Cl)c1C(=O)N1CCN(c2ccccc2F)CC1`, -4.1%.
`Cc1ccc(OCC(=O)Nc2ccc(I)cc2)cc1`: the displacement is -6.5%.
In the case of `COc1ccc(Oc2coc3cc(OC(C)=O)ccc3c2=O)cc1` it was 11.2%.
In the case of `CCOc1ccc(OCC)c(S(=O)(=O)n2cc(C)nc2CC)c1` it was 12.3%; in that of `COc1ccccc1C/C(N)=N/OC(=O)COc1ccccc1C`, 4.6%.
In the case of `O=C(c1ccco1)N1CCN(Cc2cccc(Cl)c2)CC1` it was 4.9%.
Turning to `C=CCOc1c(Br)cc(C2C(C(=O)OC)=C(C)NC3=C2C(=O)c2ccccc23)cc1OC` (stereo not given), the displacement is 9.7%.
The value for `COc1ccc(OC)c(NC(=S)NC(NC(=O)c2cccc(C)c2)C(Cl)(Cl)Cl)c1` (stereo not given) was 11.2%; that for `O=C(NC(=S)Nc1ccc(Cl)c(-c2nc3cc(Cl)ccc3o2)c1)c1ccco1` was 23.3%; that for `CCOc1cccc(/C=C2\SC(=O)N(c3ccccc3)C2=O)c1O` was 3%.
The value for `COc1ccc(-c2nc3cc(NC(=O)COc4ccc(Br)cc4)ccc3o2)cc1` was 4.5%.
In the case of `COc1ccc(/C=C/C(=O)NC(=S)Nc2ccccc2Cl)cc1OC` it was 12.6%; in that of `O=C(NCCc1ccc(Cl)cc1)Nc1ccc(Br)cc1`, 13.2%; in that of `CCOC(=O)c1ccc(NC(=O)C2CC(=O)N(c3ccc(F)cc3)C2)cc1` (stereo not given), 6.3%.
Turning to `Cc1ccc(/C=C2\SC(=Nc3ccc(O)cc3)NC2=O)cc1`, the displacement worked out at 0.1%.
In the case of `CCCCOc1ccc(C(=O)NC(C)c2ccc(OC)cc2)cc1` (stereo not given) it was -5.3%; in that of `CC1CC(Nc2ccccc2)c2ccccc2N1C(=O)c1ccc(NS(C)(=O)=O)cc1` (stereo not given), 8.6%; in that of `COc1ccc(O)c(/C=N/c2ncn[nH]2)c1`, -8%.
The value for `O=C1CC(c2ccccc2)c2c(ccc3ccccc23)O1` (stereo not given) was 9.8%.
In the case of `COc1cc(C2SCC(=O)N2Cc2ccco2)ccc1O` (stereo not given) it was -4.6%.
Regarding `COc1ccc(C2CC(C(F)(F)F)n3ncc(C(=O)NCCc4ccccc4)c3N2)cc1OC` (stereo not given), the displacement turned out to be 5.1%.
Consider `CCCC(=O)Nc1cc(-c2nc3cc(Cl)cc(Cl)c3o2)ccc1C`, for which the displacement is -1.2%.
In the case of `COc1ccc(Nc2cc(C)nc3c(C)cccc23)cc1` it was 1%.
The value for `COc1cc(Br)cc(/C=N/N(C)C2=NS(=O)(=O)c3cc([N+](=O)[O-])ccc32)c1OC` was -2.4%.
For `COc1ccc(OC)c(S(=O)(=O)NCc2ccc3c(c2)OCO3)c1`, the displacement is -9.4%.
In the case of `COc1ccc(OC)c(NC(=O)/C(=C/c2ccccc2)c2ccccc2)c1` it was 13.2%.
The value for `Cc1ccc(S(=O)(=O)Nc2cc(Cl)c(O)c(C)c2C)cc1` was 9.1%.
In the case of `CC(=O)Oc1ccc(-c2cccc(C(=O)OC(C)C)c2)cc1` it was 13.2%; in that of `Cc1ccc(S(=O)(=O)N(Cc2ccccc2)c2ccccc2C(=O)NCc2cccnc2)cc1`, 5.9%; in that of `Cc1nc2c(C)cccc2c2c1CC(C(C)(Cl)Br)O2` (stereo not given), -10.1%.
With `Cc1ccc(COc2ccc3c4c(c(=O)oc3c2)CCC4)cc1`, the displacement was found to be 14.6%.
In the case of `CC1=NN(C(=O)c2cccc([N+](=O)[O-])c2)C(O)(c2ccc(Br)cc2)C1` (stereo not given) it was 12.4%; in that of `O=C(NCC1CCCO1)c1ccc(Br)cc1` (stereo not given), -1.3%; in that of `COc1ccc(-n2nc3cc(C)c(NC(=O)c4ccc(C)cc4)cc3n2)cc1`, 5.5%.
The value for `N#C/C(=C/c1ccc(Sc2ccccc2)o1)C(=O)Nc1ccccc1` was -22.8%; that for `CCn1nnnc1-c1ccc(OC)c(S(=O)(=O)Nc2ccc(F)cc2)c1` was 6.1%.
With `COc1ccccc1C(=O)Nc1ccccc1[N+](=O)[O-]`, the displacement was -0.4%.
In the case of `O=C(NCCN1CCCC1=O)c1ccccc1` it was 9.1%; in that of `CCCOc1ccc(/C=C2N=C(/C=C/c3ccccc3)OC/2=O)cc1OC`, 166%.
In the case of `CC(C)(O)C#Cc1ccc(C(=O)N2CCN(C/C=C/c3ccccc3)CC2)cc1` it was -5.1%; in that of `CC(C)(C)c1ccc(C(=O)NNC(=O)C(=O)N2CCCCC2)cc1`, -7%; in that of `O=[N+]([O-])c1ccccc1OCCCCCCNCCO`, 0.3%.
The value for `Cc1onc(-c2ccccc2Cl)c1C(=O)NCCNc1ccc([N+](=O)[O-])cc1Cl` was -2.3%; that for `OCCN(CCO)c1nc2ccccc2[nH]1` was 1.5%.
Regarding `COCCNC(=O)CN(c1ccc(C(C)C)cc1)S(=O)(=O)c1ccccc1`, the displacement was -7.4%.
Take `CC(C)(C)OC(=O)NC(Cc1c[nH]c2ccccc12)C(=O)NCc1ccccc1` (stereo not given): the displacement was -5.4%.
The value for `CCOc1ccc(N2C(=O)CC(Nc3ccc(N4CCCCC4)cc3)C2=O)cc1` (stereo not given) was 6.1%; that for `CC1(C)CC(=O)C(C2(O)C(=O)Nc3ccc(Br)cc32)CO1` (stereo not given) was -12.2%.
In the case of `CN(C)c1nc(N(C)C)nc(N2CC(=O)N(N)C2=N)n1` it was 4.5%; in that of `CC(C)(C)c1cc(CO)c(O)c(C(C)(C)C)c1`, -11.3%.
The value for `Cc1nnc(N/N=C\c2c(Cl)cccc2Cl)[nH]c1=O` was -12.3%.
Turning to `CC(=O)c1ccc2c(c1)C1C=CCC1C(c1ccc(Cl)cc1)N2` (stereo not given), the displacement is 7.3%.
In the case of `CC1CCCN(C(=O)c2ccc(Cl)cc2)C1` (stereo not given) it was 5.2%; in that of `COc1ccc(-c2cn3cc(C)ccc3n2)cc1Br`, 11.7%; in that of `COc1ccc(S(=O)(=O)Nc2ccc(C)cn2)cc1`, 7.4%.
`O=C(c1cccc(Cl)c1)N1N=C(c2ccc(Cl)cc2)CC1(O)C(F)(F)F` (stereo not given): the displacement was found to be 0.8%.
The value for `Cc1ccc(OCC(=O)NNC(=O)c2ccco2)c(Br)c1` was -7.7%; that for `Cc1ccc(-c2nc(N/N=C/c3ccccc3O)c3ccccc3n2)cc1` was 76.2%; that for `Cc1cc2nc(-c3cc(NC(=S)NC(=O)c4ccccc4Cl)ccc3Cl)oc2cc1C` was -1.9%.
Turning to `Cc1ccc(/C(O)=C2\C(=O)C(=O)N(CCCC(=O)O)C2c2ccccc2Cl)cc1` (stereo not given), the displacement was 3%.
As for `COc1ccc(-c2nc(-c3ccc(C)cc3)no2)cc1`, the displacement worked out at 0.1%.
For the compound `CC(=O)Nc1n[nH]c(-c2ccc(C)cc2)c1C`, the displacement came out at 10.8%.
The value for `CCOC(=O)c1c(C)n(C)c2ccc(O)c(CN(CC)CC)c12` was 13.5%.
In the case of `CC(C)c1ccccc1NC(=O)C(c1ccccc1)c1ccccc1` it was -4.6%.
